# Laboratory results: the RNAGym collection of RNA variant scans (doi:10.7554/elife.90254)
# Read counts are not given, so values of variants with three or more changes are uncertain.
# B1: LINE1-full (parent)
# chain: UACGUAGGUGGUUUUCCCCUGAUAGUGCUAAGGGGGCCUGGAAGUUUGGACUGGGCAGAGCUCAACACAGCGUGGCAAAGUGGCUGUGGCUAGACUGCCUCUCUGGAUUCCUCGUCACUCAGCAGGGCAUCUCUGAGAGAAAUGCC
# Variants of: B1
# Assay: self-cleavage, relative activity (ratio to wild type); higher = more cleavage; in vitro, sequencing; the parent is a self-cleaving ribozyme
row,Variant,self-cleavage
1,UACGUAGGUGGUUUUCCCCUGAUAGUGCUAAGGGGGCCUGGAAGUUUGGACUGGGCAGAGCUCAACACGGCGUGGCAAGGUGGCUGUGGCUAGACUGCCUCUCUGGAUUCCUCGUCACUCAGCAGGGCACCUCUGAGAGAAAUGCC,2.3
2,UACGUAGGUGGCUUUCCCCCGAUAGUGCUAAGGGGGCCUGGAAGUUUGGACUGGGCAGAGCUCAACACAGCGAGGCAAAGUGGCUGAGGCUAGACUGCCUCUCUGGAUUCCUCGUCACUCAGCAGGGCAUCUCUGAGAGAAAUGCC,0.21
3,UACGUAGGCGGUUUUCCCCUGAUGGUGCUAAGGGGGCCUGGAAGUUUGGACUGGGCAGAGCUCAACACAGCGUGGCAAAGUGGCUGUGGCUAGACUGCCUCUCUGGAUUCCUCGUCACUCAGCAAGGCAUCUCUGAGAGAAAUGCC,0.65
4,UACGUAGGUGGUUUUCCCCUGAUAGUGCUAAGGGGGCCUGGAAGUUUGGACUGGGCAGAGCUCAACACAGCGUGACAAAGUGGCUGUGGCUAGACUGCCUCUCUGGACUCCUCGUCACUCAGCAGGGCAUCUCUGGGAGAAAUGCC,1.22
5,UACGUAGGUGGUCUUCCCCUGAUAGUGCUAAGGGGGCCUGGAAGUUUGGACUGGGCAGGGCUCAACACAGCGUGGCAAAGUGGCUGUGGCUAGACUGCCUCUCUGGAUUCCUCGUCACUCAGCAGGGCAUCUCUGAGAGAACUGCC,0.08
6,UACGUAGGCGGUUUUCCCCUGAUUGUGCUAAGGGGGCCUGGAAGUUUGGACUGGGCAGAGCUCAACACAGCGUGGCGAAGUGGCUGUGGCUAGACUGCCUCUCUGGAUUCCUCGUCACUCAGCAGGGCAUCUCUGAGAGAAAUGCC,2.37
7,UACGUAGGUGGUUUUCCCCUGAUAGUGCUAAGGGGGCCUGGAAGUUAGGACAGGGCAGAGCUCAACACAGCGUGGCAAAGUGGCUGUGGCUAGACUGCCUCUCUGGAUCCCUCGUCACUCAGCAGGGCAUCUCUGUGAGAAAUGCC,1.36
8,UACGUGGGUGGUUCUCCCCUGAUAGUGCUAAGGGGGCCUGGAAGUUUGGACAGGGCAGAGCUCAACACAGCGUGGCAAAGUGGCUGUGGCUAGACUGCCUCUCUGGAUUCCUCGUCACUCAGCAGGGCAUCUCUGAGAGAAGUGCC,0.98
9,UACGUAGGUGGUUUUCCCCUGAUAGUGCUAAGGGGGCCUGGAAGUUUGGACUGGGCAGAGCUCAACACAGCGAGGCAAAGUGGCUGUGGCUAGACUGCCUCUCUGGAUUCCUCGUCACUCAGCUGGGCAUCUCUGAGAGAAGUGCC,1.48
10,UACGUAGGUGGUUUUCCCCUGGUAGUGCUAAGGGGGCCUGGAAGUUUGGACUGGGCAGAGCUCAACACAGCGUGGCAAAGUGGCCGUGGCUAGACUGCCUCUCUGGAUACCUCGUCACUCAGCAGGGCAUCUCUGAGAAAAAUGCC,0.18
11,UACGUAGGUGGCUUUCCCCUGAUAGUGCUAAGGGGGCCUGGAAGUUUGGACUGGGCAGAGCUCAACACAGCGUGGCAAAGUGGCUGUGGCUAGGCUGCCUCUCUGGAUUCCUCGUCAUUCAGCAGGGCAUCUCUGAGGGAAAUGCC,0.27
12,UACGUAGGUGGUUUUCCCCUGAUAGUGCUAAGGGGGCCUGGAAGUUUGGACUGGGCAGAGCUCAACACAGCGUGGCGAAGUGGCUGUGGCUAGACUGCCUCUCUGGAUUCCUCGUCUCUCAGCAGGGCAUCUCUGAGAGAGAUGCC,2.59
13,UACGUAGGUGGUUUUCCCCUGAUAGUGCUAAGGGGGCCUGGAAGUUUGGACUGGGCAGAGCUCAACACAGCGAGGCAAAGUGGCUGUGGCUAGACUGCCUCUCUGAAUUCCUCGCCACUCGGCAGGGCAUCUCUGAGAGAAAUGCC,1.84
14,UACGCAGGUGGUUUACCCCUGAUAGUGCUAAGGGGGCCUGGAAGUUUGGACUGGGCAGAGCUCAACACAGCGUGGCGAAGUGGCUGUGGCUAGACUGCCUCUCAGGAUUCCUCGUCACUCAGCAGGGCAUCUCUGAGAGAAAUGCC,1.42
15,UACGUGGGUGGUUUUCCCCUGACAGUGCUAAGGGGGCCUGGAAGUUUGGACUGGGCAGAGCUCAACACAGCGUGGCAAAGUGGCUGUGGCUAGACUGCCUCUCUGGAUUCCUCGUCACUCAGCAGGGCAUCUCGGAGAGAAACGCC,0
16,UACGUAGGUGGUUCUCCCCUGAUAGUGCUAAGGGGGCCUGGGAGUUUGGACUGGGCAGAGCUCAACACAGCGUGGCAAAGUGGCUGUGGCUAGACUGCCUCUCUGGAUUCCUCGUCACUCAGUAGGGCAUCUCUGAGAGAAAUGCC,0.89
17,UACGUAGGUGGCUUUCCCCUGAUAGUGCUAAGGGGGCCUGGAGGUUUGGACUGGGCAGAGCACAACACGGCGUGGCAAAGUGGCUGUGGCUAGACUGCCUCUCUGGAUUCCUCGUCACUCAGCAGGGCAUCUCUGAGAGAAAUGCC,0.12
18,UACGUAGGUGGUUUUCCCCUGAUAGUGCUAAGGGGGCCUGGAAGUUUGGACUGGGCAGAGCUCAACACAGCGUGGCAAAGCGGCUGUGGCUAGACUGCCUCUCUGGAUCCCUCGUCACUCCGCAUGGCAUCUCUGAGAGAAAUGCC,2.01
19,UACGUAGGUGGUUUUCCCCUGAUAGUGCUAAGGGGGCCUGGAAGUUUGGACUGGGCAGAGCUCAACACAGCGUGGCAAAGUGGCUGUGGCUGGACUGCCUCUCUGGAUUCCUCGUCACUCAGCAAGGCACCUCUGAGAGAAAUGCC,0.35
20,UACGUAGGUGGUUUUCCCCUGAUAGUGCUAAGGGGGCCUGGAAGUUUGGACUGGGCAGAGCUCAACACAGCGUGGCAAAGAGGCUGUGGCAAGACUGCCUCUCUGGAUUCCUCGUCUCUCAGCAGGGCAUCUCUGAGAGAAAUGCC,0.69

row,Variant,self-cleavage
1,UACGUAGGUGGUUAUCCCCUGAUAGUGCUAAGGGGGCCUGGAAGUUUGGACUGGGCAGAGCUCAGCACAGCGUGGCAAAGUGGCUGUGGCUAGGCUGCCUCUCUGGAUCCCUCGUCACUCAGCAGGGCAUCUCUGAGAGAAAUGCC,0
2,UACAUAGGUGGUUUUCCCCUGAUAGUGCUAAGGGGGCCUGGAAGCUUGGACUGGGCAGAGCUCAACACAGCGUGGCAAAGUGGCUGUGGCUAGACUGCCUCUCUGGAUUCCUCGUCACUCAGCAGGGCAUCUCUGCGAGAAAUGCC,0.7
3,CACGUAGGUGGUUUCCCCCUGAUAGUGCUAAGGGGGCCUGGAAGUUUGGACUGGGCAGAGCUCAACACAGCGUGGCAAAGUGGCUGUGGCUAGACUGCCUCUCUGGAUUCCUCGUCACUCAGCAGGGCAUCUCUGAGAGGAAUGCC,0.97
4,UACGUAGGUGGUUUUCCCCUGAUAGUGCUAAGGGAGCCUGGAAGUUUGGACUGGGCAGAGCUCAACACAGUGUGGCUAAGUGGCUGUGGCUAGACUGCCUCUCUGGAUUCCUCGUCACUCAGCAGGGCAUCUCUGAGAGAAAUGCC,0.67
5,CACGUAGGUGGUUUUCCCUUGAUAGUGCUAAGGGGGCCUGGAAGUUUGGACUGGGCAGAGCUCAACUCAGCGUGGCAAAGUGGCUGUGGCUAGACUGCCUCUCUGGAUUCCCCGUCACUCAGCUGGGCAUCUCAGAGAGAAGUGCC,0.05
6,UACGUAGGUGGUUUUCCCCUGAUAGUGCUAAGGGGGCCUGGAAGUUUGGACUGGGCAGAGCUCAACGCAGCGUGGCGAAGUGGCUGUGGCUAGGCUGCCUCUCUGGAUUCCUUGUCACUCAGCAGGGCAUGUCUGAGUGAAAUGCC,0
7,UACGUAGGUGGUUCUCACCUGAUAGUGCUGAGGGGGCCUGGAAGUAUGGACUGGGCAGAGCUCAACACAGCGUGGCAAAGUGGCUGAGGCUAGACUGCCUCUCUGGAUUCCUCGUCACUCGGCAGGGCAUCUCUGAGAGAAAUGCC,0.22
8,UACGUAGGUGGUUCUCCCCUGAUAGUGCUAAGGGGGCCAGGAAGUUUGGACUGGGCAGAGCUCAACACAGCGUGGCAAAGUGGCUGUGGCUAGACUGCCUCUCUGGAUUCCUCGUCACUCCGCAGGGCAUCUCUGAGAGAAAUGCC,1.46
9,UACGUAGGUGGUUUUCCCCUGAUAGUGCUAAAGGGGCCAGGAAGUUUGGACUGGGCAGAGCCCAACACAGCGUGGCAAAGUGGCUGUGGCUAGACUGCCUCUCUGGGUUCCUCGUCACUCAGCAGGGCAUCUCUGAGAGAAAUGCC,0.18
10,UUCGUAGGCGGUUUUCCCCUGAUAGUGCUAAGGGGGCCUGGAAGUUCGGACUGGGCAGAGCUCAACACAGCGUGGCAAAGUGGCUGUGGUUAGACUGCCUCUCUGGAUACCUCGUCACUCAGCAGGGCAUCUCUGAGAGAAAUGCC,0.11
11,UACGUAGGUGGUUUUCCCCUGAUAGUGCUAAGGGGGCCUGGAAGUUUGGACCGGGCAGAGCUUAACACAGCGUGGCAAAGUGGCUGUGGCUAGACUGCCUCUCUGGAUUCCUCGUCACCCAGCAGGGCAUCUCUGAGAGAGAUGCC,0.27
12,UACGUAGGUGGUUUUCCCCUGAUAGUGCUAAGGGGGCCUGGAAGUUUGGACUGGGCAGAGCUCAACACGGCGUGGCAAAGUGGCUGUGGCUAGACUGCCUCUCUGGAUUCCUCGUCCCUCAGCAGGGCAUCUCCGAGAGAAAUGCC,1.29
13,UACGUAGGUGGUUUUCCCCUGGUAGUGCUAAGGGGGCCUGGAAGUUUGGACUGGGCAGAGCUCAACACAGCGUGGCUAAGUGGCUGUGGCUAGACUGCCUCUCUGGAUUCCUCGUCACUCAGCAGGGCAUCUCUGUGAGAAAUGCC,1.14
14,UACGUAGGUGGUUUUCCCCUGAUAGAGCUAAGGGGGCCAGGAAGUUUGGACUGGGCAGAGCUCAACACAGCGUGGCAAAGUGGCUGUGGCUAGACUGCCUCUCUGGAUUCCUCGCCACUCAGCAGGGCAUCUCUGAGAGAAAUGCC,0.71
15,UACGUAGGUGGUUCUCCCCUGAUAGUGCUAAGGGGGCCUGGAGGUUUGGACUGGGCAGAGCUCAACACAGCGUGGAAAAGUGGCUGUGGCUAGACUGCCUCUCUGGAUUCCUCGUCACUCAGCAGGGCAUCUCUGAGAGAAAUGCC,1.71
16,UACGUAGGUGGUUUCCCCCUGAUAGUGCUAAGGGGGCCUGGAAGUUUGGACUGGGCAGAGCUCAACACAGCAUGGCAAGGUGUCUGUGGCUAGACUGCCUCUCUGGAUUCCUCGUCACUCAUCAGGGCAUCUCUGAGAGAAAUGCC,1.56
17,UACGUAGGUGGUUUUCCCCUGAUAGUGCUAAGGGGGCCUGGAAGUUUGGACUGGGCAGAGCUCAACACAGCGUGGCAAAGUGGCUGUGGCUAGACUGCUUCUCUGGAUUCCUCGUCACUCAGCGGGGCAUCUCUGAGAGAAACGCC,0.44
18,UACGUAGGUGGUUUUCCCCUGAUAGUGCUAAGGGGGCCUGGAAGUUUGGACUGGGUAGAGCUCAACACAGCGUGGCAAAGUGGCUGUGGCUAGACUGCCUCUCUGGAAUCCUCGUCACCCAGCAGGGCAUCUCUGAGAGAGAUGCC,0.1
19,UACGUAGGUGGUUUUCCCUUGAUAGUGCUAAGGGGGCCUGGAAGUUCGGACUGGGCAGAGCUCAACACAGCGUGGCAAAGUGGCUGUGGUUAGACUGCCUCUCUGGAUUCCUCGUCACUCAGCAGGGCAUCUCUGAGAGAAAUGCC,0.04
